Patent US20220153864A1 (Pieris, published 2022)

Experiments:
[1] = target: T1, human CD137 expressed on cells (Flp-In-CHO::huCD137; NFkB-luc2/CD137 Jurkat cells) (human, UniProt Q07011 24-255); assay: flow cytometry on Flp-In-CHO::huCD137 cells, anti-human IgG detection
T1 construct: whole, on cells; also called human CD137-expressing cells
Procedure: For flow cytometric analysis, respective cell lines were incubated with an exemplary fusion protein (SEQ ID NOs: 87 and 82), the GPC3 antibody or the CD137 specific lipocalin mutein (Fc fusion) as included in the fusion protein (SEQ ID NOs: 81 and 82 and SEQ ID NO: 98, respectively), a reference CD137 antibody SEQ ID NOs: 26 and 27, or an isotype control (SEQ ID NOs: 24 and 25) and detected using a fluorescently labeled anti-human IgG antibody in FACS analysis as described in the following:
(§1) 5×10⁴ cells per well were incubated for 1 h in ice-cold PBS containing 5% fetal calf serum (PBS-FCS). A dilution series of the testing molecule were added to the cells and incubated for 1 h on ice. Cells were washed twice with PBS and then incubated with a goat anti-hlgG Alexa647-labeled antibody or goat anti-hlgG Alexa488-labeled antibody for 30 min on ice. Cells were subsequently washed and analyzed using iQue Flow cytometer (Intellicyte Screener). Mean geometric fluorescent signals were plotted and fitted with Graphpad software. The geometric means of the fluorescence intensity were used to calculate EC₅₀ values using a four-parameter logistic regression with bottom fixed to background.

[2] = target: T2, human GPC3 expressed on cells (SK-Hep1::huGPC3; HepG2, Hep3B and MKN-45 tumor cells) (human, UniProt P51654 25-554); assay: flow cytometry, HepG2 tumor cells (GPC3 high), detection labelled anti-human IgG, GeoMean BL1-H
T2 construct: whole, on cells; also called GPC3-positive tumor cells; human GPC3-expressing cells
Procedure: as §1
For flow cytometric analysis, tumor cell lines with different GPC3 expression levels (high to moderate expression: HepG2>Hep3B>MKN-45) and GPC3 negative cell line NCI-N87 were incubated with an exemplary fusion protein SEQ ID NOs: 87 and 82, the GPC3 antibody or the CD137 specific lipocalin mutein (Fc fusion) as included in the fusion protein (SEQ ID NOs: 81 and 82 and SEQ ID NO: 98, respectively), a reference CD137 antibody SEQ ID NOs: 26 and 27, or an isotype control (SEQ ID NO: 24 and 25), and detected using a fluorescently labeled anti-human IgG antibody as described in Example 6.

[3] = target: T3, recombinant cynomolgus GPC3 (cyGPC3) (R&D Systems) (cynomolgus, UniProt A0A2K5VK50 24-558); assay: SPR (Biacore T200), cyGPC3 as analyte, 1:1 model
Procedure: (§2) The anti-human IgG Fc antibody (GE Healthcare) was immobilized on a CM5 sensor chip using standard amine chemistry: the carboxyl groups on the chip were activated using 1-ethyl-3-(3-dimethylaminopropyl)-carbodiimide (EDC) and N-hydroxysuccinimide (NHS). Subsequently, anti-human IgG Fc antibody solution (GE Healthcare) at a concentration of 25 μg/mL in 10 mM sodium acetate (pH 5.0) was applied at a flow rate of 5 μL/min until an immobilization level of 6000-10000 resonance units (RU) was achieved. Residual non-reacted NHS-esters were blocked by passing a solution of 1M ethanolamine across the surface. The reference channel was treated in an analogous manner. Subsequently, testing fusion proteins (SEQ ID NOs: 87 and 82 and CD137Ac1-Fusion 1) or the GPC3 antibody as included in the fusion protein (SEQ ID NOs: 81 and 82) at 0.2 μg/ml in HBS-EP+ buffer was captured by the anti-human IgG-Fc antibody at the chip surface for 180 s at a flow rate of 10 μL/min. After each capture step, the needle was washed.
(§3) The binding assay was carried out with a contact time of 180 s, a dissociation time of 900 s, and a flow rate of 30 μL/min. After each injection, the needle was cleaned with 40 mM NaOH+20% isopropanol. All measurements were performed at 25° C. […] Prior to the protein measurements, three startup cycles were performed for conditioning purposes. Data were evaluated with Biacore T200 Evaluation software (v2.0). Double referencing was used and the 1:1 binding model was used to fit the raw data.

[4] = target: T3, recombinant cynomolgus GPC3 (cyGPC3) …; assay: ELISA, cyGPC3 coated
Procedure: (§4) Recombinant huGPC3 (R&D Systems) at the concentration of 1 μg/mL in PBS was coated overnight on microtiter plates at 4° C. After five washes with 100 μL PBS-0.05% T (PBS supplemented with 0.05% (v/v) Tween 20), the plates were blocked with 2% BSA (w/v) in PBS-0.1% T (PBS-0.1% T-2% BSA) for 1 h at room temperature. After washing with 100 μL PBS-0.05% T (PBS supplemented with 0.05% (v/v) Tween 20) five times, exemplary fusion proteins (SEQ ID NOs: 87 and […] and CD137Ac1-Fusion 1 to 7) or the GPC3 antibody as include in the fusion proteins (SEQ ID NOs: 81 and 82) at different concentrations were added to the wells and incubated for 1 h at room temperature, followed by another wash step. Bound molecules under study were detected by incubation with 1:5000 diluted anti-human IgG Fc-HRP (Jackson Laboratory) in PBS-0.1% T-2% BSA. After an additional wash step, fluorogenic HRP substrate (QuantaBlu, Thermo) was added to each well and the fluorescence intensity was detected using a fluorescence microplate reader.
(§5) The same ELISA setup was also employed to determine the binding potency of fusion proteins to cynomolgus GPC3 and huCD137, where recombinant cyGPC3 (R&D Systems) or huCD137-His (recombinant human CD137 with C-terminal polyhistidine tag, R&D Systems) was instead coated on a microtiter plate. The testing agents were similarly titrated and bound agents were detected via anti-NGAL-HRP. […]

[5] = target: T4, recombinant human GPC3 (huGPC3) (R&D Systems) (human, UniProt P51654 25-559); assay: ELISA, huGPC3 coated, detection anti-human IgG Fc-HRP
T4 construct: also called biotinylated huGPC3
Procedure: as §4
Exemplary results are depicted in FIG. 2A-2D, together with the fit curves resulting from a 1:1 binding sigmoidal fit, where the EC₅₀ value and the maximum signal were free parameters, and the slope was fixed to unity.

[6] = target: T5, huCD137-His (recombinant human CD137 with C-terminal polyhistidine tag, R&D Systems) (human, UniProt Q07011 24-186); assay: ELISA, huCD137-His coated, detection anti-NGAL-HRP
T5 construct: also called biotinylated huCD137-His; not shown: C-terminal polyhistidine tag
T5 sequence (Q07011 24-255): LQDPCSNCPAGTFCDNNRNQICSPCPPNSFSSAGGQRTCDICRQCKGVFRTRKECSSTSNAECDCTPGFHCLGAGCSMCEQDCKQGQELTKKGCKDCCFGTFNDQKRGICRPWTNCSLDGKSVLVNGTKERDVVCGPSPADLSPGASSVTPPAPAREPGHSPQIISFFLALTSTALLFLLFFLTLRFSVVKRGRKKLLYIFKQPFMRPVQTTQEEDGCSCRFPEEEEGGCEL
Procedure: as §4, §5

[7] = target: T4, recombinant human GPC3 (huGPC3) (R&D …); assay: dual-binding ELISA: huGPC3 coated, fusion titrated, detection with biotinylated huCD137-His
Procedure: (§6) Recombinant huCD137-His (R&D Systems) in PBS (1 μg/mL) was coated overnight on microtiter plates at 4° C. The plates were washed five times after each incubation step with 100 μL PBS-0.05% T. The plates were blocked with PBS-0.1% T-2% BSA for 1 h at room temperature and subsequently washed again. Different concentrations of tested fusion proteins were added to the wells and incubated for 1 h at room temperature, followed by a wash step. Subsequently, biotinylated huGPC3 was added at a constant concentration of 1 μg/mL in PBS-0.1% T-2% BSA for 1 h. After washing, a 1:5000 dilution of ExtrAvidin-HRP (Sigma-Aldrich) in PBS-0.1% T-2% BSA was added to the wells and incubated for 1 h. After an additional wash step, fluorogenic HRP substrate (QuantaBlu, Thermo) was added to each well, and the fluorescence intensity was detected using a fluorescence microplate reader.
The dual binding of fusion proteins was also tested with a reverse set-up where recombinant huGPC3 (R&D Systems) was coated on microtiter plates at 1 μg/ml and the bound fusion proteins were detected via the addition of 5 μg/mL biotinylated huCD137-His.
(§7) Exemplary dual binding data are shown in FIG. 3, together with the fit curves resulting from a 1:1 sigmoidal binding fit, where the EC₅₀ value and the maximum signal were free parameters, and the slope was fixed to unity.

[8] = target: T4, recombinant human GPC3 (huGPC3) (R&D …); assay: SPR (Biacore T200), huGPC3 as analyte, 1:1 model
Procedure: as §2, §3

[9] = target: T5, huCD137-His (recombinant human CD137 …); assay: dual-binding ELISA: huCD137-His coated, fusion titrated, detection with biotinylated huGPC3
Procedure: as §6, §7

Binder | EC50 [1] [nM] | binding result [2] | Kd [3] [nM] | koff [3] [s⁻¹] | kon [3] [M⁻¹ s⁻¹] | EC50 [4] [nM] | EC50 [5] [nM] | EC50 [6] [nM] | EC50 [7] [nM] | Kd [8] [nM] | koff [8] [s⁻¹] | kon [8] [M⁻¹ s⁻¹] | EC50 [9] [nM]
CD137 specific lipocalin mutein (Fc fusion) (SEQ ID NO: 98) (Fc fusion) [omitted - human IgG4 Fc with S228P F234A L235A (EU numbers)]GGGGSGGGGSGGGGSQDSTSDLIPAPPLSKVPLQQNFQDNQFHGKWYVVGQAGNIRLREDKDPIKMMATIYELKEDKSYDVTMVKFDDKKCMYDIWTFVPGSQPGEFTLGKIKSFPGHTSSLVRVVSTNYNQHAMVFFKFVFQNREEFYITLYGRTKELTSELKENFIRFSKSLGLPENHIVFPVPIDQCIDG | 18 | no binding (tested: about 200 nM) |  |  |  |  |  |  |  |  |  |  | 
previously known CD137/GPC3 bispecific fusion protein (SEQ ID NO: 83) (other) QDSTSDLIPAPPLSKVPLQQNFQDNQFQGKWYVVGRAGNVGLREDKDPPKMWATIYELKEDKSYDVTNVRFARKKCTYSIGTFVPGSQPGEFTLGQIKSEPGGTANLVRVVSTNYNQHAMVFFKEVYQNREIFFIILYGRTKELTSELKENFIRFSKSLGLPENHIVFPVPIDQCIDGGGGGSGGGGSGGGGS[omitted - human IgG4 Fc with S228P F234A L235A (EU numbers)]GGGGSGGGGSGGGGSQDSTSDLIPAPPLSKVPLQQNFQDNQFHGKWYVVGQAGNIRLREDKDPIKMMATIYELKEDKSYDVTMVKFDDKKCMYDIWTFVPGSQPGEFTLGKIKSFPGHTSSLVRVVSTNYNQHAMVFFKFVFQNREEFYITLYGRTKELTSELKENFIRFSKSLGLPENHIVFPVPIDQCIDG | 4.68 |  | 0.669 | 0.000141 | 211000 | 0.41 | 0.24 | 0.15 | 1 | 0.737 | 0.000151 | 205000 | 4.2
